# Measurements as given in PubChem BioAssay AID1645882 (National Center for Advancing Translational Sciences (NCATS), 2021).
# Out of some 16,000 compounds screened, about 120 (0.75%) were called active. Another 4% or so got no clear call; they are omitted. Calls come from the whole dose curve; as a rule, active = well fitted inhibition curve with a large enough effect; inconclusive = small, poorly fitted or top-dose-only effect; inactive = no such curve, though single readings can be large or run the other way. This is one part of the list. Where a SMILES comes first, the peptide text is derived from it. [ ]: non-standard residue; d: D form. Met(O) = CS(=O)CC[C@H](N)C(=O)O; Phe(ol) = N[C@H](CO)Cc1ccccc1; Sar = CNCC(=O)O
# Molecular target: Rap guanine nucleotide exchange factor 3 (Homo sapiens) (UniProt O95398)
# Assay: Validation qHTS for antagonist of cAMP-regulated guanine nucleotide exchange factor 3 (EPAC1);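 note: plate controls were DMSO for no effect and ATA control for full effect; nearly all actives have a fitted effect of over 75% in size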
# Settings: EPAC1 Rap1B-BODIPY-GDP exchange, fluorescence; series mostly up to 150 µM; activity change, negative = inhibition: at the top concentration
# How it was run: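 EPAC1 (100 nM) mixed with 250 nM RAP1B-BODIPY-GDP and 50 uM GDP; compounds in concentration series, 5 min at room temperature. Fluorescence (ex 480/em 540 nm) read every 5 min for 30 min; normalized to ATA control and DMSO.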
# UniProt O95398, sequence (O95398 whole entry, looked up): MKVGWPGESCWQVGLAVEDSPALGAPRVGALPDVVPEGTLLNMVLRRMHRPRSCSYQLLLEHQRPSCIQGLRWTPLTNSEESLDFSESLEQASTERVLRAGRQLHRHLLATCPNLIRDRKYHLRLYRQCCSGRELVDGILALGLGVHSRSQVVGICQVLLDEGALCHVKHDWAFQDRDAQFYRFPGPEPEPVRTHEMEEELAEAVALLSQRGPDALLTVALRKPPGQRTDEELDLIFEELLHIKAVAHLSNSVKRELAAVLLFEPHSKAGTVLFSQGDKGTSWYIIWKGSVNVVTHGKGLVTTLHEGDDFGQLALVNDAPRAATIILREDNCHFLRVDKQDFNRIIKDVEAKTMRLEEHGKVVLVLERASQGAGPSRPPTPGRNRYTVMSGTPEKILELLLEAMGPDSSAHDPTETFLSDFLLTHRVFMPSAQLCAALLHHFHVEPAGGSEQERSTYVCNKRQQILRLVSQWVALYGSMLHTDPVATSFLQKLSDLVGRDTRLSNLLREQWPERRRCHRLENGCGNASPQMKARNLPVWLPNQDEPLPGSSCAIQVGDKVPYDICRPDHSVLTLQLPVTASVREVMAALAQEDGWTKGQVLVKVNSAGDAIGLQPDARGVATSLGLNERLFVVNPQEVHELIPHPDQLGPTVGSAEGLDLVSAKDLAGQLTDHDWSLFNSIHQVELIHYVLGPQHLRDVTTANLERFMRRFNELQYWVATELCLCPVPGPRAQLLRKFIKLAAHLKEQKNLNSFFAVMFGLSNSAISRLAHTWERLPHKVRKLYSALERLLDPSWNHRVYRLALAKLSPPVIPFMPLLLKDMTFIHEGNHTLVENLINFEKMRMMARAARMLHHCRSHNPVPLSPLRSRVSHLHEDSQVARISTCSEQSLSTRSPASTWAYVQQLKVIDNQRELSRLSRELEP
row,Structure (SMILES),"activity change, negative = inhibition"
1,CC(C)Oc1cccnc1N(C)C1CCN(Cc2ccccc2)CC1,inactive: -9.06% [at 75.8 µM]
2,CCOC(=O)/C=C(C)/C=C/C[C@@H](C)CCCC(C)C,inactive: 4.04%
3,C#CCN1CC(=O)N(COC(=O)C2C(C=C(C)C)C2(C)C)C1=O (centres undefined),inactive: 6.29%
4,Cc1ncsc1CCCl,inactive
5,CC(=O)OC1CC[C@]2(C)C(CCC3C2CC[C@]2(C)C(C4=CC(=O)OC4)C(OC(C)=O)CC32O)C1 (some centres undefined),inactive: -0.664%
6,CCCCCCC(C)(C)c1ccc([C@@H]2C[C@H](O)CC[C@H]2CCCO)c(O)c1,inactive: 7.06% [at 75.8 µM]
7,CC(C)CN1CCC2(CC1)CCN(S(C)(=O)=O)CC2,inactive: 6.2%
8,CCN1C[C@]2(C)CC[C@H](OC)[C@@]34[C@H]1C1(OCO[C@@]15C[C@H](OC)C1C[C@]3(O)C5[C@H]1OC)[C@@H](O)[C@H]24,inactive: 0.739%
9,C[C@@]12CCC(Cl)C[C@H]1CCC1C2CC[C@]2(C)C(=O)CCC12 (some centres undefined),inactive: 7.52%
10,COC1(CS(=O)c2ccccc2)CCN(CCc2c[nH]c3ccc(F)cc23)CC1 (centres undefined),inactive: 15.3%
11,O.O.O.O=C([O-])C(O)C(O)C(=O)[O-].O=C([O-])C(O)C(O)C(=O)[O-].[K+].[K+].[Sb].[Sb] (centres undefined),inactive: 15.8%
12,C=CCN1CC[C@@]23c4c5ccc(O)c4O[C@H]2/C(=N\N=C2/CC[C@@]4(O)[C@H]6Cc7ccc(O)c8c7[C@@]4(CCN6CC=C)[C@@H]2O8)CC[C@]3(O)[C@@H]1C5,inactive: 10.9%
13,O=C(Nc1ccccc1)N1CC[C@@]2(CCCNC2)C1,inactive: 2.67%
14,[2H]C([2H])([2H])[C@H](N)Cc1ccccc1,inactive: 17%
15,CC(O)(CS(=O)(=O)c1ccc(F)cc1)C(=O)Nc1ccc(C#N)c(C(F)(F)F)c1 (centres undefined),inactive: 4.8% [at 75.8 µM]
16,C=CCN1CC[C@]23c4c5ccc(O)c4O[C@@H]2/C(=N/N=C2\CC[C@@]4(O)C6Cc7ccc(O)c8c7[C@@]4(CCN6CC=C)[C@@H]2O8)CC[C@@]3(O)C1C5,inactive: -8.98% [at 75.8 µM]
17,CC1O[C@@H](O[C@@H]2C(O)C[C@H](O[C@@H]3C(O)C[C@@H](OC4CC[C@@]5(C)C6CC[C@]7(C)C(C8=CC(=O)OC8)CC[C@@]7(O)C6CC[C@@H]5C4)OC3C)OC2C)CC(O)[C@H]1O (some centres undefined),inactive: 10.4%
18,CCCn1c(=O)c2[nH]c(C3CCCC3)nc2n(CCCOC(=O)c2ccc(S(=O)(=O)F)cc2)c1=O,inactive: 7.11% [at 75.8 µM]
19,CN1C2CCC1CC(OC(c1ccccc1)c1ccc(Cl)cc1)C2 (centres undefined),inactive: 6.83%
20,CC1CC[C@@]2(OC1)O[C@@H]1[C@@H](O)[C@H]3C4CC[C@H]5C[C@@H](O[C@@H]6O[C@H](CO)[C@H](O[C@@H]7O[C@H](CO)[C@@H](O)[C@H](O[C@@H]8OC[C@@H](O)[C@H](O)[C@H]8O)[C@H]7O[C@@H]7O[C@H](CO)[C@@H](O)[C@H](O[C@@H]8O[C@H](CO)[C@@H](O)[C@H](O)[C@H]8O)[C@H]7O)[C@H](O)[C@H]6O)[C@H](O)C[C@]5(C)C4CC[C@]3(C)[C@H]1[C@@H]2C (some centres undefined),inactive: 12.2%

row,Structure (SMILES),"activity change, negative = inhibition"
1,CCOC(=O)c1cncn1[C@H](C)c1ccccc1,inactive: 2.31%
2,CNC(=O)Oc1cccc2ccccc12,inactive: 7.5%
3,CCOC(=O)c1cncn1C(C)c1ccccc1 (centres undefined),inactive: 15.7% [at 75.8 µM]
4,Cc1noc(C)c1C(=O)N1CCC2(CCCN(CC(C)C)C2)CC1,inactive: 17.6%
5,N[C@@H](CCP(=O)(O)O)C(=O)O,inactive: -4.79%
6,Cc1nc(-c2ccc(-c3ccc(C(=O)N4CCc5cc6c(cc54)C4(CCN(C)CC4)CO6)cc3)c(C)c2)no1,inactive: -5.95%
7,C[C@]12CCC3C(CC[C@H]4C[C@H](O)CC[C@]34C)[C@@H]1CC[C@@H]2C(=O)CO (some centres undefined),inactive: 19.1%
8,CCOC(=O)C1(c2ccccc2)CCCN(C)CC1 (centres undefined),inactive: 17.5%
9,CC(Cc1ccccc1)NC=O (centres undefined),inactive: 8.76%
10,CN(CC(=O)N[C@H](CO)Cc1ccccc1)C(=O)[C@H](CCS(C)=O)NC(=O)[C@@H](N)Cc1ccc(O)cc1 (some centres undefined) (H-Y[Met(O)][Sar][Phe(ol)]),inactive: 20.1% [at 15.3 µM]
11,O=CC=O,inactive: -2.87%
12,NC1C[C@H]1c1ccccc1 (some centres undefined),inactive: -2.04%
13,CCCCCCC(C)OC(=O)COc1ccc(Cl)cc1Cl (centres undefined),inactive: 7.72%
14,CC(C)c1cccc(C(C)C)c1O,inactive
15,c1ccc(N2CCC3(CCNCC3)CC2)nc1,inactive: 13.1%
16,O=C(c1csnn1)N1CCC2(CC1)CN(Cc1ccncc1)C2,inactive: 7.56%
17,C[C@]1(C(=O)O)CCC[C@]2(C)c3cc(O)ccc3CC[C@@H]12,inactive: 10.1%
18,CCCCCCCCCCCCCCCCOC[C@@H](O)COP(=O)([O-])OCC[N+](C)(C)C,inactive: -0.837% [at 15.3 µM]
19,NC[C@H](CP(=O)(O)O)c1ccc(Cl)cc1,inactive: -2.72%
20,c1cnc(N2CCC3(CCNCC3)CC2)nc1,inactive: 24.7%

row,Structure (SMILES),"activity change, negative = inhibition"
1,CCCCCCCCCOc1ccc2[nH]cc(CCN)c2c1,inactive
2,CC(=O)[C@H]1CCC2C3CC[C@H]4C[C@H](O)CC[C@]4(C)C3CC[C@@]21C (some centres undefined),inactive: -5.68% [at 75.8 µM]
3,Clc1ccc(COC(Cn2ccnc2)c2ccc(Cl)cc2Cl)cc1 (centres undefined),inactive: -19.9%
4,COc1ccc2c(c1OC)C(=O)OC2C1c2cc3c(cc2CCN1C)OCO3 (centres undefined),inactive
5,CCN(CC)/[N+]([O-])=N/O,inactive: 11.1%
6,c1ccc(C[C@@H](c2ccccc2)N2CCCCC2)cc1,inactive: 6.87%
7,Clc1ccc(C2(Cn3cncn3)OCCO2)c(Cl)c1,inactive: 18.3%
8,Cc1[nH]c2ccccc2c1CN(C)C,inactive: -13%
9,CCCCCCCCCC(=O)O[C@H]1CC[C@H]2[C@@H]3CCC4=CC(=O)CC[C@@H]4[C@H]3CC[C@]12C,inactive: -6.61%
10,O=C(NCNC(=O)NC1C(=O)NC(=O)N1CO)NC1C(=O)NC(=O)N1CO (centres undefined),inactive: 12.5%
11,CC(=O)O[C@H]1CC[C@@]2(C)C(=CC[C@@H]3[C@@H]2CC[C@]2(C)C(=O)CC[C@@H]32)C1,inactive: 6.3% [at 75.8 µM]
12,CC1CCC2C(C)C(=O)OC3OC4(C)CCC1C32OO4 (centres undefined),inactive: -2.77%
13,O=C1C2CC=CCC2C(=O)N1SC(Cl)(Cl)Cl (centres undefined),inactive: 27%
14,O=C(Oc1ccccc1)N1CCC2(CC1)CN(Cc1ccncc1)C2,inactive: 6.33%
15,N#CC(C#N)=Cc1cc(O)c(O)c(O)c1,inactive: -5.99%
16,CCCCCCCCCCCCCCCC[N+](C)(C)C,inactive: 10.8%
17,O=[N+]([O-])c1ccccc1,inactive: 8.55%
18,C[C@@H]1O[C@@H](O[C@H]2CC[C@]3(C=O)C4CC[C@]5(C)[C@@H](C6=CC(=O)OC6)CC[C@]5(O)[C@@H]4CC[C@]3(O)C2)[C@H](O)[C@H](O)[C@H]1O (some centres undefined),inactive: 9.73%
19,CN1C[C@H](CNC(=O)OCc2ccccc2)C[C@@H]2c3cccc4c3c(cn4C)C[C@H]21,inactive
